Molecules are shown by their SMILES. In all, about 340,000 compounds went through this assay and about 6,900 (2%) were called active. Rule as the data show it: active = inhibition above about 30%; inactive = below that, where a call was filed. The list shows a part of the results, in another mix than the full data. The source gives no active or inactive call for entries shown without one.

The target of this experiment is D(2) dopamine receptor (Homo sapiens) (UniProt P14416). Nature of the experiment: HTS Assay for Allosteric Antagonists of the Human D2 Dopamine Receptor: Primary Screen for Antagonists. Also: 0% is about no effect. Particulars: HEK293 TREx D2 cells, calcium flux, dopamine EC80; at 10 µM; stronger effect = higher value. In a few lines: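 Cells plated overnight at 30 C with tetracycline; no-wash calcium dye, 30–90 min RT; 10 s baseline; compound pinned; 180 s read; EC80 dopamine added; another 180 s read.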
Chain of UniProt P14416 (P14416 whole entry, looked up): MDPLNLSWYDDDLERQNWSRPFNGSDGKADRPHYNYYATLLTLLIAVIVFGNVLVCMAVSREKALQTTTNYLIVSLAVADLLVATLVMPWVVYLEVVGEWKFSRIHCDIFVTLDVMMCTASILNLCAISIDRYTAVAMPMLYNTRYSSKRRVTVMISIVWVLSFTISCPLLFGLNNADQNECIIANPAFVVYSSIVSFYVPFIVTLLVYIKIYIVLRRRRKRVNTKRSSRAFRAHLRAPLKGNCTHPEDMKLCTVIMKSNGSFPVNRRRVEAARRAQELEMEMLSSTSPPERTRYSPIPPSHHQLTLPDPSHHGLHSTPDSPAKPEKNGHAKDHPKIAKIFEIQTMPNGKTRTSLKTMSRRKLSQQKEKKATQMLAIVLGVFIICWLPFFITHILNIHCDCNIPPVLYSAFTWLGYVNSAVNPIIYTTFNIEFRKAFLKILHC
In the case of `CCN1C(=O)c2ccccc2S(=O)(=O)c2ccc(C(=O)NCc3ccccc3)cc21`, the inhibition (in general, the change of the read-out against control, counted positive when it falls) is -17.7%.

As to `CCOC(=O)C1CCN(C(=O)c2ccccc2NC(=O)c2nsc3ccccc23)CC1`, the inhibition was -4.36%.

Turning to `CCOc1ccc(NS(=O)(=O)c2c(C)nc3sc(C)c(C)n3c2=O)cc1`, the inhibition stood at 15.6%. With `COCCCNC(=O)c1cn(Cc2c(F)cccc2Cl)nn1` the figure was active: 32%; with `Clc1ccc(OCc2nnc(-c3ccccc3Br)o2)cc1`, active: 36.4%; with `Cc1nc2nc(NC(=O)c3ccc(C(C)(C)C)cc3)[nH]n2c(=O)c1C`, 2.26%. Under `CCCCOc1ccc(C(=O)Nc2ccc3c(c2)CCCN3C(=O)c2cccs2)cc1` stands 5.04%. Under `O=C(CCC1N=C2c3ccccc3N=C(SCC(=O)Nc3cccc(Cl)c3)N2C1=O)NCc1ccco1` (centres undefined) stands 14.2%; under `CNCc1c(OCc2ccccc2)ccc2ccccc12`, active: 79.2%; under `NC(=O)C1CCN(S(=O)(=O)c2cc3c(cc2Cl)NC(=O)CO3)CC1`, 10.9%. Regarding `CCCCN(CC)C(=O)CSc1nc2n[nH]c(C)c2c(=N)n1-c1ccc(CC)cc1`, the inhibition was determined as 7.32%. With `CCOC(=O)C1CCN(C(=O)c2cc3sc(C)cc3n2C)CC1` the figure was 2.27%. With `CCOc1ccc(-c2cccc(NS(=O)(=O)c3ccc(C)s3)c2)nn1` the figure was -3.58%. For the compound `COc1ccc(NC(=O)CSc2ncc3c(n2)-c2ccccc2N(Cc2ccc(C)cc2)S3(=O)=O)cc1Cl`, the inhibition is 1.16%. With `Cc1ccc(N(C)C(=O)c2sc3nc4n(c(=O)c3c2C)CCCC4)cc1C` the figure was 24.9%.

Regarding `COCCCn1c(=O)c2sccc2n2c(CCCC(=O)NCc3cccc(OC)c3)nnc12`, the inhibition was -5.69%. With `O=C(NCc1ccccc1CN1CCCC1)c1ccc(Cl)c(S(=O)(=O)N2CCCC2)c1` the figure was active: 32.9%. Under `COc1ccccc1CCNC(=O)Cc1c(C)c2cc(Cl)c(O)cc2oc1=O` stands -2.7%; under `CCN(CC(O)CON=C1c2ccccc2-c2ccccc21)S(=O)(=O)c1ccc(C)cc1` (centres undefined), active: 34.1%; under `CC(C)c1ccc(S(=O)(=O)N2CCN(Cc3cccc(F)c3)CC2)cc1`, 19.3%. With `CCCCOc1ccccc1C1CC(=O)Nc2ccc3ccccc3c21` (centres undefined) the figure was 12%.

As for `CCOc1ccc(CNC(=O)c2oc3c(c2C)-c2nn(Cc4cccc(Cl)c4)cc2CC3)cc1`, the inhibition was determined as 10.7%.

As to `COc1cc(OC)cc(C(=O)NC(=S)N2CCCCC2c2cccnc2)c1` (centres undefined), the inhibition was active: 40.7%. Under `COc1ccc(C)c2sc(NC(=O)c3ccc(S(=O)(=O)N(C)C)cc3)nc12` stands 0.445%; under `COC(=O)c1ccccc1NC(=O)[C@H]1O[C@@H]2OC(C)(C)O[C@@H]2[C@H]2OC(C)(C)O[C@H]21`, -2.03%. Under `Cc1cc(C)cc(OCC(=O)Nc2cccc3cccnc23)c1` stands -0.269%. With `CCCCCCC(=O)Nc1ccc2nc3c(=O)n(C)c(=O)n(C)c3nc2c1C` the figure was -20.1%; with `CC(=O)Nc1cccc(-c2nc(-c3ccccc3)no2)c1`, 5.37%. Regarding `CCOC(=O)c1ccc(N2C(=O)c3n[nH]c(-c4ccco4)c3C2c2ccc(C(=O)OC)cc2)cc1` (centres undefined), the inhibition worked out at 22.6%. Under `O=C(c1ccc2c(c1)N(Cc1ccc(Cl)cc1)C(=O)c1ccccc1S2(=O)=O)N1CCCC1` stands 0.714%.

In the case of `O=c1c2sc3ccccc3c2n(Cc2cccc(F)c2)c(=O)n1CCc1ccccc1`, the inhibition was -3.84%. Under `CCN(CC)C(=O)Cn1c(=O)n(CCCCCC(=O)NCc2ccc3c(c2)OCO3)c(=O)c2sccc21` stands -18.1%; under `Cc1ccccc1C(=O)Nc1ccnn1C1CCN(Cc2ccncc2)CC1`, active: 30.7%. With `Cc1ccc(CNC(=O)c2ccc(N3CCCC3)c(NC(=O)Nc3ccc(C)cc3)c2)cc1` the figure was 7.41%; with `Cc1ccc(CNC(=O)C(=O)Nc2c3c(nn2-c2ccc(F)cc2)CSC3)cc1`, 20.5%; with `Cc1ccc(NC(=O)CN2C(=O)COc3ccc(S(=O)(=O)N4CCCCCC4)cc32)c(C)c1`, -4.11%. As to `CCC(=O)OCc1cc(=O)n2nc(C3CC3)sc2n1`, the inhibition was determined as 14.2%. With `Cc1ccc2nc(CSc3nnc(-c4ccncc4)n3C)cc(=O)n2c1` the figure was active: 71.2%; with `CCCc1cc(=O)oc2c3c(ccc12)OCN(Cc1ccccc1OC)C3`, 7.4%. Under `CN(C(=O)Cn1nc(Cc2cccnc2)c2ccccc2c1=O)c1cccc(C(F)(F)F)c1` stands 11.9%.

For `COc1ccc(Oc2cc(C)c3ccccc3n2)cc1`, the inhibition is active: 44.6%. Under `CCCCC1CCC(C(=O)N2CC(=O)Nc3ccc(Br)cc3C2c2ccc(F)cc2)CC1` (centres undefined) stands 5.27%; under `CN1C(=O)c2ccc(NC(=O)c3c(C(=O)O)cccc3[N+](=O)[O-])cc2C1=O`, active: 33.9%. With `CCc1ccc(S(=O)(=O)c2nnn3c2nc(N2CCN(c4ccccc4)CC2)c2cc(Cl)ccc23)cc1` the figure was 11.6%; with `CCc1c(C)c2ccc(O)c(CN3CCN(c4cc(Cl)ccc4C)CC3)c2oc1=O`, 14%; with `O=C(O)CC1c2ccccc2CCN1C(=O)Nc1cc(Cl)ccc1Cl` (centres undefined), -0.177%. Under `Cc1ccc(N(CC(=O)N2CCN(c3cc(C)ccc3C)CC2)S(=O)(=O)c2c(C)nn(C)c2C)cc1` stands 7.27%. In the case of `Cc1ccc(CN(C(=O)c2ccc(OCC(C)C)cc2)c2ccccn2)o1`, the inhibition was -3.88%. Under `CCc1cccc(CC)c1NC(=O)CCCSc1nc2ccccc2s1` stands active: 30.3%; under `COc1ccc(-c2cc(C)no2)cc1S(=O)(=O)NCCCN1CCN(c2ccccc2)CC1`, active: 80.1%; under `CCc1ccc(-c2nc(CS(=O)CC(=O)NCCc3ccc(C)cc3)c(C)o2)cc1` (centres undefined), -1.62%.

On to `CC(C)c1cnc2c(c1SCC(=O)NC(C)(C)C)c(=O)n(C)c(=O)n2C`, for which the inhibition was 4.61%. Under `CCN(CC)CCOC(=O)c1ccc(NC(=O)c2cc3c(s2)-c2ccccc2OC3)cc1` stands 7.3%. In the case of `CCc1ccc(NC(=O)CN2C(=O)c3ccccc3Sc3ccc(C(=O)N4CCCC4)cc32)cc1`, the inhibition worked out at 14.8%. With `Clc1cccc(C2=NC(c3cccs3)=Nc3ccc(Br)cc3N2)c1` the figure was 0.104%; with `COc1ccc(C(CNC(=O)C(C)(C)Oc2ccc(Cl)cc2)N2CCCC2)cc1` (centres undefined), active: 97.3%.

As for `COc1ccc(CNC(=O)c2sc3nc4n(c(=O)c3c2C)CCCCC4)cc1`, the inhibition came out at 16.7%. With `Cc1nc(-c2ccc(S(=O)(=O)Nc3ccc(Cl)c(C(F)(F)F)c3)cc2)co1` the figure was 11.2%; with `COc1ccc(CNC(=O)C(CC(C)C)N2Cc3ccccc3C2=O)cc1` (centres undefined), -13.6%; with `CCN(CC)CCOC(=O)c1ccc(Nc2c3c(nc4ccccc24)CCC3)cc1`, 8.45%. On to `Cc1ccc2nc(COc3cccc(NC(=O)c4ccccc4Cl)c3)cc(=O)n2c1`, for which the inhibition is -22.8%. With `CC(C)CN(CCNC(=O)c1cc(-c2cccs2)nc2ccccc12)CC(C)C` the figure was 6.91%.

Consider `CCOc1ccccc1CNC(=O)c1cnc2sc(N(CC)CC)nn2c1=O`, for which the inhibition turned out to be 7.02%. With `CCOC(=O)c1cc(-c2ccccc2)n(CCCC(=O)Nc2ccccc2C)c1C` the figure was -13.1%.

For `COc1ccc(-n2ccnc(NCc3ccccc3Cl)c2=O)cc1OC`, the inhibition stood at 4.77%. With `COc1ccc(C(=O)c2oc3ccccc3c2NC(=O)c2cccc(OC)c2)cc1` the figure was -1.56%; with `CCOc1cccc(CC(=O)N2CCc3c([nH]c4ccccc34)C2c2ccc(SC)cc2)c1OCC` (centres undefined), -5.36%. Under `CCOc1ccc(NC(=O)Cn2nc(Cc3ccncc3)c3ccccc3c2=O)cc1` stands 2.26%; under `CCCN(CCC)C(=O)c1nn(C)c2c1CSc1ccc(C)cc1-2`, -12.5%. Under `COc1cccc(CN2CCN(c3ncccn3)CC2)c1` stands active: 95%; under `CC(C)Cn1c(=O)c2ccccc2n2c(CCC(=O)Nc3ccc(F)cc3)nnc12`, 0.623%. On to `COc1ccccc1/C=C/c1nc(C#N)c(NCC(C)C)o1`, for which the inhibition was -14.4%. Take `Cn1c(=O)c2c(c3ccccc31)OC(=O)CC2c1cccc(Cl)c1` (centres undefined): the inhibition was -4.46%. Under `Cc1ccc(-c2nc(CCNC(=O)C(=O)Nc3c(C)cccc3C)cs2)cc1` stands 16.2%. With `CCOCCn1cnc2sc(C(=O)Nc3ccccc3C(=O)OC)c(C)c2c1=O` the figure was 3.05%. With `Cc1ccc(OCCCCN2CCc3ccccc3C2)cc1` the figure was active: 73.4%; with `O=C(Cn1ccc2cc(S(=O)(=O)N3CCCCC3)ccc21)NCc1ccccc1Cl`, -7.02%.

As to `CC(C)c1nnc(N2C(=O)C(O)=C(C(=O)c3cccs3)C2c2ccccc2)s1` (centres undefined), the inhibition was active: 47.9%. With `COc1ccc(C)cc1NC(=O)c1oc2ccc(S(=O)(=O)N3CCC4(CC3)OCCO4)cc2c1C` the figure was -14.2%; with `CCOC(=O)c1ccc(N2CCN(c3cc(C)ccc3C)CC2)c(NC(=O)Nc2ccc(Cl)cc2)c1`, 0.709%. With `Cc1ccc(NC(=S)N(CCN2CCCCC2)Cc2ccco2)cc1C`, the inhibition was active: 50.8%. With `CCOc1ccc(C2C(C(=O)Nc3ccccc3C)=C(C)Nc3nnnn32)cc1` (centres undefined) the figure was -8.25%; with `CC(=O)Nc1nnc2n1CCS2`, 4.05%. Under `Cc1ccc(OCCCNCCO)c(Br)c1` stands active: 39.4%. With `CCn1c(CN2CCOCC2)nc2cc(NC(=O)c3cccc([N+](=O)[O-])c3)ccc21` the figure was -1.16%; with `Cn1c(=O)c2c(-c3ccccc3)n(CCCO)cc2n(C)c1=O`, 0.42%; with `CCCc1nnc(NC(=O)Nc2ccccc2Cl)s1`, -26.5%. Take `CCOc1ccc(OCC)c(NC(=O)C2CCCN(S(=O)(=O)c3cc(Br)cc4c3N(C(=O)CC)CC4)C2)c1` (centres undefined): the inhibition is -4.81%.

Consider `Cc1nc2nc(C)c(NS(=O)(=O)c3ccc(CC(C)C)cc3)c(=O)n2[nH]1`, for which the inhibition was determined as 5.28%. Under `Cc1nn(C(=O)c2c(F)cccc2F)c(C)c1S(=O)(=O)N1CCCCCC1` stands -9.25%. `COc1cc(NC(=O)N2CCSc3ccccc32)cc(OC)c1OC`: the inhibition is -1.68%. With `CC(C)Oc1ccc(CNC(=O)c2ccc3c(c2)nc2n3CCOC2)cc1` the figure was -11.1%. Under `CCN(c1ccccc1C)S(=O)(=O)c1nnc(NC(=O)c2ccccc2C)s1` stands 15.8%; under `Cc1ccccc1CN1CCN(CCCc2ccccc2)C(CCO)C1` (centres undefined), active: 38.3%. With `COc1ccccc1NC(=O)Nc1cc(F)ccc1F` the figure was active: 32%; with `COc1ccc(NC(=O)Cc2c(C(=O)O)[nH]c3ccccc23)cc1OC`, -6.91%; with `COc1ccc(CNC(=O)Cc2coc3ccc(C)cc23)cc1`, -1.59%.

As to `Cc1ccc(NC(=O)c2oc3ccc(S(=O)(=O)N4CCOCC4)cc3c2C)c(C)c1`, the inhibition is 2.03%. Under `O=C(CCS(=O)(=O)c1nc(-c2ccc3c(c2)OCO3)cc(C(F)(F)F)n1)Nc1ccc(Br)cc1` stands 0.0929%.

Source of the values: PubChem BioAssay AID485344 (National Center for Advancing Translational Sciences (NCATS), 2010).
